# Experimental data published in PubChem BioAssay (NCI).
#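 Growth conditions: 96-well plates. Treatment: test compound, 48 hours, 5 concentrations. Analysis: linear interpolation between bracketing concentrations; unreached endpoints set to highest concentration. TGI marks complete inhibition of growth.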 Certain results were filed several times, with different values. Only these are listed. There may be further records. A record mostly stands for its own series of concentrations, which the source does not state; a value can be the end of its range.
# Tests used:
# Assay in all cases: NCI tumour cell line growth inhibition, 48 h
# UACC-62 melanoma = system: UACC-62 melanoma
# MDA-MB-435 = system: MDA-MB-435
# CAKI-1 renal = system: CAKI-1 renal
# COLO 205 colon = system: COLO 205 colon
# HCT-116 colon = system: HCT-116 colon
# SNB-19 CNS = system: SNB-19 CNS
smiles,measurement,setting,value
COc1cc(/C=C/C(=O)CC(=O)/C=C/c2cc(OC)c(O)c(OC)c2)cc(OC)c1O,TGI,UACC-62 melanoma,8.09 µM and > 100 µM
O=C1C(N2CCN(CCOCCO)CC2)=C(Cl)C(=O)c2ncccc21,TGI,MDA-MB-435,3.35 µM and 34.7 µM
Cc1ccc2oc(=O)c3c(O)c4cccc(OC5OC(C)C6O[C@@H](c7ccccc7)OC6C5OC5OC(C)C(O)C(O)C5O)c4c4oc(=O)c1c2c34 (stereo partly specified),TGI,CAKI-1 renal,690 nM and 22.5 µM
same,TGI,COLO 205 colon,1.78 µM and > 100 µM
same,TGI,HCT-116 colon,1.21 µM and > 23.5 µM
same,TGI,SNB-19 CNS,320 nM and 7.99 µM
